Experimental data as given in ChEMBL document CHEMBL1201862, “PubChem BioAssay data set” (2004).
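In this assay, cells in 96-well plates receive the compound at five concentrations for 48 hours. Endpoints are linearly interpolated between the surrounding concentrations. GI50 = concentration required for 50% inhibition of growth.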 Calls of active or inactive are those of the source. Rule as the data show it: active = GI50 up to about 1.1 µM and inactive = higher.

System: NCI-H322M
Experiment: inhibition of tumour cell growth, NCI panel, 48 h

Which GI50 does the source give for `Nc1nc(-c2ccc3ccccc3c2)cc(-c2cc(-c3ccc4ccccc4c3)nc(N)n2)n1` here?
Its GI50 is inactive: > 100 µM.

With `CN(CCC(=O)O)S(=O)(=O)c1ccccc1` as the compound, how does the GI50 read?
The GI50 was inactive: > 100 µM.

With `O=C(CSc1ncnc2[nH]cnc12)c1ccccc1` as the compound, how does the GI50 read?
Its GI50 is inactive: > 100 µM.

`CC(=O)Nc1c(C)cc(OCC(=O)O)cc1C` was tested. Which GI50 did it give?
Its GI50 is inactive: > 100 µM.

With `Cc1cc2c(C(C)C)c(O)c(O)c(C=O)c2c(O)c1-c1c(C)cc2c(C(C)C)c(O)c(O)c(C=O)c2c1O` as the compound, how does the GI50 read?
Its GI50 is inactive: 2.79 µM.

How did the GI50 turn out when `O=C(NCCCl)Nc1ccccc1` was run?
Its GI50 is inactive: > 100 µM.

Which GI50 does the source give for `O=C1Nc2ccccc2/C1=N/NC(=S)Nc1ccc(Cl)cc1` here?
The GI50 was inactive: 14 µM.

`CCOC(=O)C1=C(C)NC(C)=C(C(=O)OCC)C1c1ccc(Cl)cc1` was tested. Which GI50 did it give?
The GI50 was inactive: 14.3 µM.

With `Cc1nc(O)nc(N/N=C/c2ccc(Cl)cc2)c1C(=O)NC(C)(CO)CO` as the compound, how does the GI50 read?
The GI50 was inactive: > 100 µM.

How did the GI50 turn out when `Cc1nc2c(N)ncnc2o1` was run?
Its GI50 is inactive: > 100 µM.

Which GI50 does the source give for `O=C1[C@@H]2C3C=CC([C@H]4C(=O)N(CO)C(=O)[C@@H]34)[C@@H]2C(=O)N1CO` here?
The GI50 was inactive: > 100 µM.

Which GI50 does the source give for `Cc1cc(NS(=O)(=O)c2ccc(NC(=O)c3ccc4nc5ccccc5c(Nc5ccc(S(N)(=O)=O)cc5)c4c3)cc2)no1` here?
The GI50 was inactive: 44.7 µM.

Which GI50 does the source give for `CC1=CC(=C(c2ccc(N)c(C)c2)c2ccc(N)c(C)c2)C=CC1=N` here?
The GI50 was inactive: 3.78 µM.

With `CN(C)c1c(Cl)c(=O)oc2c1ccc1nc(-c3ccccc3)sc12` as the compound, how does the GI50 read?
The GI50 was inactive: > 100 µM.

With `CCCCCCCCC(O)C#CC(N)=O` (stereo not given) as the compound, how does the GI50 read?
Its GI50 is inactive: 13.5 µM.

How did the GI50 turn out when `NCCCNCCSSCCCCS(=O)O` was run?
The GI50 was inactive: 96.6 µM.

How did the GI50 turn out when `CN(C)CCNC(=O)c1cccc2ccc(-c3cccnc3)nc12` was run?
The GI50 was inactive: 6.07 µM.

With `CC1(C)OC2COC3([C@@H]4OC(C)(C)O[C@@H]4CO)OC(C)(C)OC3C2O1` (stereo not given in full) as the compound, how does the GI50 read?
The GI50 was inactive: > 100 µM.

Which GI50 does the source give for `CC(=O)NC1C(Sc2ncn(C3OC(CO)C(O)C(O)C3NC(C)=O)n2)OC(CO)C(O)C1O` (stereo not given) here?
The GI50 was inactive: > 100 µM.

For `CCCCNCC(=O)O[C@]1(CC)C(=O)OCc2c1cc1n(c2=O)Cc2cc3ccccc3nc2-1`, which GI50 is on record?
The GI50 was active: 0.826 µM.

With `COC(=O)/C(C=O)=C/Sc1ccccc1` as the compound, how does the GI50 read?
The GI50 was inactive: 28.4 µM.

`[O-][N+]1=C(c2ccccc2)COc2ccccc21` was tested. Which GI50 did it give?
The GI50 was inactive: > 100 µM.

With `C/C=C/C1(C)/C(=N\O)C(C)(CCC)C(=O)N1O` (stereo not given) as the compound, how does the GI50 read?
The GI50 was inactive: > 100 µM.

Which GI50 does the source give for `CN[C@@H](Cc1cccc2ccccc12)C(=O)N[C@@H](CC(C)C)B(O)O` here?
Its GI50 is active: < 0.0177 µM.

Which GI50 does the source give for `COc1cc2c(cc1OC)C1C3CCCCC3CCN1CC2` (stereo not given) here?
The GI50 was inactive: > 100 µM.

`Clc1ccc(-c2c3nc(c(-c4ccc(Cl)cc4)c4ccc([nH]4)c(-c4ccc(Cl)cc4)c4nc(c(-c5ccc(Cl)cc5)c5ccc2[nH]5)C=C4)C=C3)cc1` was tested. Which GI50 did it give?
The GI50 was inactive: > 100 µM.

With `C/C(CCN(C)C)=N\OC(=O)c1ccccc1` as the compound, how does the GI50 read?
Its GI50 is inactive: > 100 µM.

With `CC(C)OP(=O)(OC(C)C)c1c(N)n[nH]c1Nc1ccccc1` as the compound, how does the GI50 read?
The GI50 was inactive: > 100 µM.

`O[C@]12C=C(c3nccc4c3[nH]c3ccccc34)[C@@H]3CCN(CCCC/C=C\CC1)C[C@@]31CC3/C=C\CCCCN3[C@H]12` (stereo not given in full) was tested. Which GI50 did it give?
The GI50 was active: 0.667 µM.

`Clc1ccc(C2=C(c3ccccc3)C(c3ccc(Cl)cc3)N3C(=N[C@H]4CCCC[C@@H]43)N2)cc1` (stereo not given in full) was tested. Which GI50 did it give?
Its GI50 is inactive: 11.8 µM.

How did the GI50 turn out when `O=C1N/C(=N/N=C\C(O)C(O)C(O)C(O)CO)N/C1=C\c1ccc(Cl)cc1` (stereo not given) was run?
Its GI50 is inactive: 23.4 µM.

For `CC(C)=CCC[C@@H](C)C1=C(O)C(=O)C(C)=C(Nc2ccccc2F)C1=O`, which GI50 is on record?
The GI50 was inactive: 18.5 µM.

How did the GI50 turn out when `COc1cc(C)c(C(=O)/C=C/c2cc(OC)c(O)c(OC)c2)cc1O` was run?
The GI50 was inactive: 21.2 µM.

With `Cc1cccc(NC(=S)Nc2ccccc2Cl)n1` as the compound, how does the GI50 read?
Its GI50 is inactive: 84.9 µM.

Which GI50 does the source give for `CC(=O)OCC1OC(N2C(c3ccccc3)=CC(c3ccccc3)C(C#N)=C2S)C(OC(C)=O)C(OC(C)=O)C1OC(C)=O` (stereo not given) here?
Its GI50 is inactive: 27 µM.

For `OC(Cc1cnnc2ccccc12)C(Cl)(Cl)Cl` (stereo not given), which GI50 is on record?
Its GI50 is inactive: > 10 µM.

Which GI50 does the source give for `Brc1ccccc1/C=N\C12CC3CC(CC(C3)C1)C2` here?
The GI50 was inactive: > 100 µM.

`CC(C(=O)OCc1ccccc1)(c1ccco1)N1C(=O)OC(c2ccccc2)C1c1ccccc1` (stereo not given) was tested. Which GI50 did it give?
Its GI50 is inactive: > 100 µM.

How did the GI50 turn out when `N#Cc1cc2c(n(C3OC(CO)C(O)C(O)C3O)c1=S)CCCCCC2` (stereo not given) was run?
The GI50 was inactive: > 100 µM.

How did the GI50 turn out when `COc1cc(/C=C2\N=C(c3ccccc3)N(c3nc4c(OC)ccc(OC)c4s3)C2=O)ccc1O` was run?
Its GI50 is inactive: 81.3 µM.

Which GI50 does the source give for `C=C1C(=O)O[C@H]2C/C(C)=C/CC/C(C)=C/CC[C@@](C)(O)[C@@H](I)C[C@@H]12` here?
Its GI50 is inactive: 13.3 µM.

`COc1cc(/C=C(\NC(=O)c2ccccc2)c2nc3cc([N+](=O)[O-])ccc3[nH]2)cc(OC)c1OC` was tested. Which GI50 did it give?
Its GI50 is inactive: 39.6 µM.

How did the GI50 turn out when `C/C=C(\C)c1cc(=O)c2c(C)cc3c(c2o1)C(OC)(OC(C)=O)c1c(O)c(C2CC(C)(N(C)C)C(OC(C)=O)C(C)O2)cc(C2CC(N(C)C)C(OC(C)=O)C(C)O2)c1C3=O` (stereo not given) was run?
The GI50 was active: 0.618 µM.

How did the GI50 turn out when `CC(=O)Oc1c(-c2ccccc2)sc2ccccc12` was run?
The GI50 was inactive: 16.5 µM.

Which GI50 does the source give for `c1cc2c3c(c1)[C@@H]1O[C@@H]1c1cccc(c1-3)[C@@H]1O[C@H]21` here?
Its GI50 is inactive: 32.5 µM.
